# Reference: PubChem BioAssay AID652104 (National Center for Advancing Translational Sciences (NCATS), 2013)
# “And” between values parts separate entries of the source, which are not always exact repeats. Identical values can stand only once. Among all 410,000 compounds or so, about 7,200 (1.8%) were called active. This list was built around the results that the source calls inconclusive (neither active nor inactive); the mix of calls is not that of the screen. The call rests on the fitted dose curve; in most records, active means well fitted activation curve with a large enough effect; inconclusive means small, poorly fitted or top-dose-only effect, or another doubt; inactive means no such curve, though single readings can be large or run the other way. A potency beside an inconclusive call is a rough fit, not a confirmed value.
# Assay: qHTS of TDP-43 Inhibitors; further: nearly all actives have a fitted effect of over 50% in size; on growth rescue (activation): % of control where 0% means no effect
# Conditions: TDP-43 expressing yeast growth rescue, BacTiter-Glo, 24 h; growth rescue (activation): at 46.1 µM (top of the series) unless noted
# Summary of the method: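 Readout is BacTiter-Glo luminescence of cell growth, so inhibitors register as activators. TDP-43-expressing yeast at OD600=0.02 in galactose medium, after raffinose pregrowth to mid-log, were incubated with compound for 24 hr at 30 deg C.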
# Potency means the concentration at half of the fitted maximal effect; tags describe the fitted curve by direction and shape.
SMILES,Potency,growth rescue (activation)
COc1ccc(N2CCN(S(=O)(=O)c3ccc4c(c3)CCCN4C(C)=O)CC2)cc1,"inconclusive: 35.5 µM [activator, partial curve, poor fit]",–
COc1ccc(NCC(=O)Nc2ccccc2C#N)cc1Cl,"inconclusive: 1.78 µM [activator, full curve]",–
CC(C)(C)NC(=S)NNC(=O)c1cccc(Br)c1,"inconclusive: 12.6 µM [activator, partial curve]",–
COc1ccc(-c2nc(-n3c(C)c(C(C)=O)c(C(C)=O)c3C)sc2C)cc1,"inconclusive: 11.2 µM [activator, partial curve]",–
Cc1ccc2[nH]c3c(c2c1)CCNC3=O,"inconclusive: 31.6 µM [activator, partial curve]",–
Cn1ncc([N+](=O)[O-])c1C(=O)Nc1ccc(Cl)cc1,"inconclusive: 12.6 µM [activator, partial curve]",–
CC(=O)c1ccc(Oc2cc(C)nc(NCc3ccccc3)n2)cc1,"inconclusive: 3.55 µM [activator, full curve]",–
COc1ccc(CNC(=O)c2ccc(-n3ccnc3)c3ccoc23)cc1OC,inactive,–
CNc1nc(Oc2ccc3sc(C)nc3c2)c2sccc2n1,active: 20 µM,–
CC(=O)Oc1ccc(N(C(C)=O)S(=O)(=O)c2ccc3ccccc3c2)cc1Br,active: 12.6 µM,–
O=C(NCc1ccc2c(c1)OCO2)c1nc(S(=O)(=O)Cc2ccccc2F)ncc1Cl,"inconclusive: 15.8 µM [activator, partial curve]",–
Cc1ccc2nc(N3CCN(c4ccccc4F)CC3)c(C=O)c(=O)n2c1,active: 15.8 µM,–
Cc1ccc(S(=O)(=O)CCC(=O)OCn2nnc3ccccc3c2=O)cc1,"inconclusive: 28.2 µM [activator, partial curve]",–
CCc1ccc(-c2nc3cc(NC(=O)c4cc5ccccc5cc4OC)ccc3o2)cc1,"inconclusive: 1 µM [activator, full curve, poor fit]",–
COc1cccc(C(C)(O)c2nc(-c3cc4ccccc4o3)cs2)c1 (stereo not drawn),"inconclusive: 3.98 µM [activator, partial curve]",–
O=C(NCc1nnc(SCC(=O)N2CCN(c3ccccc3)CC2)o1)c1c(F)cccc1Cl,inactive,–
COc1cc(OC)c(NC(=O)c2cc3ccccc3cc2O)cc1Cl,"inconclusive: 1 µM [activator, partial curve, poor fit]",–
COCc1c(Br)c(C)[nH]c(=O)c1C#N,inactive,–
O=c1[nH][nH]c2c1C(C1CCCCC1)OC(C1CCCCC1)C2 (stereo not drawn),"inconclusive: 6.31 µM [activator, single point]",–
CC(C)c1ccc(NC(=O)C2CCN(c3nc(-c4ccc(C(C)C)cc4)no3)CC2)cc1,inactive,–
OC(c1ccc(F)c(F)c1)c1nc(-c2cncnc2)cs1 (stereo not drawn),"inconclusive: 35.5 µM [activator, partial curve, poor fit]",–
CCOc1ccc(-c2cnc3ccccc3n2)cc1,"inconclusive: 12.6 µM [activator, partial curve]",–
CC(=O)CSc1nc2ccccc2s1,"inconclusive: 25.1 µM [activator, single point]",–

SMILES,Potency,growth rescue (activation)
Cc1cc(C)c2c(CN(C)Cc3ccccc3)cc(=O)oc2c1,"inconclusive: 0.0501 µM [activator, full curve, poor fit]",–
COc1cc(-c2coc3c(C(=O)NC4CCCCC4)cccc23)ccc1O,active: 35.5 µM,–
CCCCN1C(C(=O)Nc2ncccn2)=C(O)c2ccccc2S1(=O)=O,"inconclusive: 3.16 µM [activator, partial curve]",–
Cc1cc(C)cc(NC(=O)CCCN2C(=O)COc3ccc(C)cc32)c1,inactive,–
Nc1cc(=O)nc(SCC(=O)Nc2ccc(F)cc2)n1-c1ccccc1Cl,"inconclusive: 3.98 µM [activator, full curve]",–
Cc1cccc(N2CCN(C(=O)c3cc(COc4ccc(F)c(F)c4)on3)CC2)n1,"inconclusive: 10 µM [activator, partial curve, poor fit]",–
CCOC(=O)c1cnn(-c2ccc(NS(=O)(=O)c3ccc(Cl)cc3)cc2)c1C(F)(F)F,"inconclusive: 22.4 µM [activator, single point]",–
CSc1ccc(CNC(=O)C2CCN(c3nnc(-n4cccc4CNc4ccc(C)cc4)s3)CC2)cc1,inactive,–
CC(=O)Nc1ccc(OCc2cccc([N+](=O)[O-])c2)cc1,"inconclusive: 12.6 µM [activator, single point]",–
O=C(Cn1cc(SCc2ccccc2)c2ccccc21)N1CCCCC1,inactive,–
CCCCNC(=O)Cn1nnc(-c2ccccc2)c1COc1ccc(C(C)=O)cc1,"inconclusive: 7.94 µM [activator, partial curve]",–
O=S(=O)(Nc1cccc2cccnc12)c1ccccc1,"inconclusive: 35.5 µM [activator, single point]",–
COc1ccc(Cn2nnc3c(=O)[nH]c(C4CCCN(C(=O)c5ccccc5)C4)nc32)cc1 (stereo not drawn),"inconclusive: 35.5 µM [activator, partial curve]",–
O=C(Nc1ccc2c(c1)CCCN2C(=O)c1cccs1)c1c(F)cccc1F,"inconclusive: 14.1 µM [activator, single point] and inconclusive: 35.5 µM [activator, single point]",–
COCCNC(=S)N1CCN(c2nc(-c3ccc(F)cc3)cs2)CC1,"inconclusive: 35.5 µM [activator, single point]",–
CC(C)(C)C1CCc2c(sc(NC(=O)C3CCCO3)c2C(N)=O)C1 (stereo not drawn),"inconclusive: 12.6 µM [activator, single point]",–
COc1ccc(-c2c(C)c3cc(OC(=O)N4CCOCC4)ccc3oc2=O)cc1,"inconclusive: 35.5 µM [activator, single point]",–
Cc1cccc2c(=O)c(-c3ccc4c(c3)OCO4)c(NC(=O)c3ccco3)oc12,active: 15.8 µM,–
CCc1sc(C(C2C(=O)CC(C)(C)CC2=O)C2C(=O)CC(C)(C)CC2=O)cc1[N+](=O)[O-],–,inconclusive: -89.4% [activator]
CN(CC(=O)Nc1ccccc1C(F)(F)F)C(=O)Cn1c(=O)oc2ccccc21,inactive,–
CCOc1c(Br)cc(/C=C(\C#N)C(=O)NC2CC2)cc1OC,"inconclusive: 31.6 µM [activator, single point]",–
O=C(COC(=O)Cc1ccccc1F)Nc1ccc(SC(F)F)cc1,active: 10 µM,–
Cc1nnc(SCC(=O)N2CCOCC2)c2ccccc12,inactive,–

SMILES,Potency,growth rescue (activation)
N/C(Cc1ccc([N+](=O)[O-])cc1)=N\OC(=O)Cc1ccc(Cl)cc1,"inconclusive: 35.5 µM [activator, single point]",–
Clc1ccccc1Nc1ncnc2c1nnn2Cc1ccccc1,inactive,–
Cc1ccc(Cl)cc1N1CCN(Cc2nnnn2Cc2ccco2)CC1,"inconclusive: 35.5 µM [activator, single point]",–
Cc1cc2n(n1)C(c1ccc(O)cc1)Nc1ccccc1-2 (stereo not drawn),"inconclusive: 20 µM [activator, partial curve]",–
Cc1cc(O)c(NC(=O)c2ccc(Br)o2)cc1C,"inconclusive: 6.31 µM [activator, partial curve]",–
CN(C(=O)CSc1nc2ccc(NC(=O)c3ccccc3F)cc2s1)c1ccccc1,"inconclusive: 22.4 µM [activator, single point]",–
Cc1nc2nc(SCC(=O)Nc3cccc(Cl)c3)nn2c(C)c1Cc1ccccc1,"inconclusive: 28.2 µM [activator, partial curve, poor fit]",–
O=C(c1ccc(F)cc1)C1CCN(C(=S)Nc2ccccc2)CC1,"inconclusive: 14.1 µM [activator, single point]",–
O=C(Nc1ccccc1)N1N=C(c2cccs2)CC1c1cccs1 (stereo not drawn),inactive,–
Cc1ccccc1CNC(=O)c1cccc(NC(=O)c2nsc3ccccc23)c1,"inconclusive: 14.1 µM [activator, partial curve, poor fit]",–
COc1ccc(-c2nc(C)c(CCNC(=O)c3ccc(F)c(F)c3)s2)cc1,"inconclusive: 3.16 µM [activator, partial curve]",–
Fc1ccc(Sc2nc(-c3ccccc3)nnc2C(F)(F)F)cc1,inactive,–
CCOC1=C2CN(S(=O)(=O)c3ccc(C)cc3)[C@H](c3cccc4ccccc34)C[C@H]2C(C#N)(C#N)C(C#N)(C#N)C1,"inconclusive: 35.5 µM [activator, single point]",–
O=C(Cc1ccccc1F)Nc1nc(-c2cccs2)cs1,active: 12.6 µM,–
Fc1ccc(-c2cc(-c3nc(-c4ccccc4)no3)[nH]n2)cc1,inactive,–
Cc1ccc(OCC(=O)Nc2ccc(OCc3cc(=O)n4ccsc4n3)cc2)cc1,"inconclusive: 6.31 µM [activator, partial curve, poor fit]",–
CN(CC(=O)Nc1cccc(F)c1)C(=O)c1cc(-c2ccccc2)nc2ccccc12,inactive,–
COC(=O)c1c(-c2ccc(SC)cc2)sc2ccccc12,inactive,–
Cc1ccc(S(=O)(=O)C2(C(=O)Nc3ccc(C)c(Cl)c3)CC2)cc1,"inconclusive: 35.5 µM [activator, single point]",–
N#Cc1ccc(CSc2ccc(S(=O)(=O)N3CCCCCC3)cn2)cc1,"inconclusive: 14.1 µM [activator, partial curve]",–
CN1CCN(C(c2ccc(Cl)cc2Cl)c2sc3nc(-c4ccco4)nn3c2O)CC1 (stereo not drawn),"inconclusive: 1.26 µM [activator, partial curve]",–
Cn1nc(C(=O)NCc2cccc(Cl)c2)c2c1-c1ccccc1SC2,active: 20 µM,–
